The record followed here is PMC9911399, “Two distinct binding modes provide the RNA-binding protein RbFox with extraordinary sequence specificity”.

Sequences and labels used below:
B1: UGUCCGA (DNA:RNA)
RNA: GGGAGACCGGAAUUCAGAUUGUCCUGUCCGAUUAAAUCCCGUCGUAGCCACCA
DNA 1: CAATCTGAATTCCGGTCTCCC
DNA 2: TGGTGGCTACGACGGGATT
B2: CGGUGUG (DNA:RNA)
RNA: B1 RNA with U25C, U27G, C28U, C29G, G30U, A31G
DNA 1: CAATCTGAATTCCGGTCTCCC
DNA 2: TGGTGGCTACGACGGGATT
B3: CUCUGGU (DNA:RNA)
RNA: B1 RNA with U25C, G26U, U27C, C28U, C29G, A31U
DNA 1: CAATCTGAATTCCGGTCTCCC
DNA 2: TGGTGGCTACGACGGGATT
B4: AACGUCU (DNA:RNA)
RNA: GGGAGACCGGAAUUCAGAUUGUCCAACGUCUUUAAAUCCCGUCGUAGCCACCA
DNA 1: CAATCTGAATTCCGGTCTCCC
DNA 2: TGGTGGCTACGACGGGATT
B5: ACGCAGG (DNA:RNA)
RNA: B1 RNA with U25A, G26C, U27G, C29A, A31G
DNA 1: CAATCTGAATTCCGGTCTCCC
DNA 2: TGGTGGCTACGACGGGATT
B6: AGGAGCU (DNA:RNA)
RNA: B4 RNA with A26G, C27G, G28A, U29G
DNA 1: CAATCTGAATTCCGGTCTCCC
DNA 2: TGGTGGCTACGACGGGATT
B7: GCCAUUA (DNA:RNA)
RNA: B4 RNA with A25G, A26C, G28A, C30U, U31A
DNA 1: CAATCTGAATTCCGGTCTCCC
DNA 2: TGGTGGCTACGACGGGATT
B8: AAGAUGG (DNA:RNA)
RNA: B4 RNA with C27G, G28A, C30G, U31G
DNA 1: CAATCTGAATTCCGGTCTCCC
DNA 2: TGGTGGCTACGACGGGATT
B9: GUGUAUU (DNA:RNA)
RNA: B4 RNA with A25G, A26U, C27G, G28U, U29A, C30U
DNA 1: CAATCTGAATTCCGGTCTCCC
DNA 2: TGGTGGCTACGACGGGATT
B10: UAUUGCC (DNA:RNA)
RNA: B4 RNA with A25U, C27U, G28U, U29G, U31C
DNA 1: CAATCTGAATTCCGGTCTCCC
DNA 2: TGGTGGCTACGACGGGATT
B11: UGACAGG (DNA:RNA)
RNA: B1 RNA with U27A, C29A, A31G
DNA 1: CAATCTGAATTCCGGTCTCCC
DNA 2: TGGTGGCTACGACGGGATT
B12: UCCCGUU (DNA:RNA)
RNA: B4 RNA with A25U, A26C, G28C, U29G, C30U
DNA 1: CAATCTGAATTCCGGTCTCCC
DNA 2: TGGTGGCTACGACGGGATT
B13: GGGUGCG (DNA:RNA)
RNA: B4 RNA with A25G, A26G, C27G, G28U, U29G, U31G
DNA 1: CAATCTGAATTCCGGTCTCCC
DNA 2: TGGTGGCTACGACGGGATT
B14: UAUGACA (DNA:RNA)
RNA: B4 RNA with A25U, C27U, U29A, U31A
DNA 1: CAATCTGAATTCCGGTCTCCC
DNA 2: TGGTGGCTACGACGGGATT
B15: UGAAUCG (DNA:RNA)
RNA: B4 RNA with A25U, A26G, C27A, G28A, U31G
DNA 1: CAATCTGAATTCCGGTCTCCC
DNA 2: TGGTGGCTACGACGGGATT
B16: CAGGUGC (DNA:RNA)
RNA: B4 RNA with A25C, C27G, C30G, U31C
DNA 1: CAATCTGAATTCCGGTCTCCC
DNA 2: TGGTGGCTACGACGGGATT
B17: GGCCAGA (DNA:RNA)
RNA: B1 RNA with U25G, U27C, C29A
DNA 1: CAATCTGAATTCCGGTCTCCC
DNA 2: TGGTGGCTACGACGGGATT
B18: CAGAUAU (DNA:RNA)
RNA: B4 RNA with A25C, C27G, G28A, C30A
DNA 1: CAATCTGAATTCCGGTCTCCC
DNA 2: TGGTGGCTACGACGGGATT
B19: UGUGCCC (DNA:RNA)
RNA: B1 RNA with C28G, G30C, A31C
DNA 1: CAATCTGAATTCCGGTCTCCC
DNA 2: TGGTGGCTACGACGGGATT
B20: UGUUUUG (DNA:RNA)
RNA: B1 RNA with C28U, C29U, G30U, A31G
DNA 1: CAATCTGAATTCCGGTCTCCC
DNA 2: TGGTGGCTACGACGGGATT
B21: AAUCCUG (DNA:RNA)
RNA: B1 RNA with U25A, G26A, G30U, A31G
DNA 1: CAATCTGAATTCCGGTCTCCC
DNA 2: TGGTGGCTACGACGGGATT
B22: ACCAUGA (DNA:RNA)
RNA: B4 RNA with A26C, G28A, C30G, U31A
DNA 1: CAATCTGAATTCCGGTCTCCC
DNA 2: TGGTGGCTACGACGGGATT
B23: AGCUGCU (DNA:RNA)
RNA: B4 RNA with A26G, G28U, U29G
DNA 1: CAATCTGAATTCCGGTCTCCC
DNA 2: TGGTGGCTACGACGGGATT
B24: AUCAAUA (DNA:RNA)
RNA: B4 RNA with A26U, G28A, U29A, C30U, U31A
DNA 1: CAATCTGAATTCCGGTCTCCC
DNA 2: TGGTGGCTACGACGGGATT
B25: ACCGAUA (DNA:RNA)
RNA: B4 RNA with A26C, U29A, C30U, U31A
DNA 1: CAATCTGAATTCCGGTCTCCC
DNA 2: TGGTGGCTACGACGGGATT
B26: CCGCUGG (DNA:RNA)
RNA: B1 RNA with U25C, G26C, U27G, C29U, A31G
DNA 1: CAATCTGAATTCCGGTCTCCC
DNA 2: TGGTGGCTACGACGGGATT
B27: UAGAGUU (DNA:RNA)
RNA: B4 RNA with A25U, C27G, G28A, U29G, C30U
DNA 1: CAATCTGAATTCCGGTCTCCC
DNA 2: TGGTGGCTACGACGGGATT
B28: ACGUCUC (DNA:RNA)
RNA: B4 RNA with A26C, C27G, G28U, U29C, C30U, U31C
DNA 1: CAATCTGAATTCCGGTCTCCC
DNA 2: TGGTGGCTACGACGGGATT
B29: ACAGUGG (DNA:RNA)
RNA: B4 RNA with A26C, C27A, C30G, U31G
DNA 1: CAATCTGAATTCCGGTCTCCC
DNA 2: TGGTGGCTACGACGGGATT
B30: CAUGCAC (DNA:RNA)
RNA: B4 RNA with A25C, C27U, U29C, C30A, U31C
DNA 1: CAATCTGAATTCCGGTCTCCC
DNA 2: TGGTGGCTACGACGGGATT
B31: UAAGCAC (DNA:RNA)
RNA: B4 RNA with A25U, C27A, U29C, C30A, U31C
DNA 1: CAATCTGAATTCCGGTCTCCC
DNA 2: TGGTGGCTACGACGGGATT

Changes are numbered by the printed parent chain; changes in the protein carry UniProt numbers. This is one part of the list.

This experiment addresses T1, RBFOX1 RRM (Homo sapiens, UniProt Q9NWB1 109-208).
T1 sequence: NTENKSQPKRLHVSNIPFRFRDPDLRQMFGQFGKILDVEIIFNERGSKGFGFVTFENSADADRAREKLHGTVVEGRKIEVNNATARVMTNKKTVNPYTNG
Kind of experiment: EMSA; HiTS-Eq, 1 nM pool, 10 min; buffer printed only for the single-RNA assays: 10 mM Tris pH 7.5, 150 mM NaCl, 3.4 mM EDTA, 0.001% NP-40, 30 C. As to conditions: tags: His6 N-terminal (pET28a); label: 5' 32P. In a few lines: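 Purified wild-type or mutant RbFox RRM at increasing concentrations was equilibrated with 1 nM of 5′-radiolabelled RNA carrying 7 randomized nucleotides for 10 min in 50 µL. Unbound RNA was separated by 8% native PAGE and sequenced. Relative association constants came from read-count changes of each RNA species compared with the control reaction, normalised to the cognate motif.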
A general note: A gel shift assay detects complexes by their altered migration in electrophoresis.
Take B1: the binding signal was 0.0182 KA relative to UGCAUGU.

B2: the binding signal was 0.0206 KA relative to UGCAUGU.

For the molecule B3, the binding signal was 0.0162 KA relative to UGCAUGU.

In the case of B4, the binding signal was 0.00544 KA relative to UGCAUGU.

Consider B5, for which the binding signal was 0.0124 KA relative to UGCAUGU.

B6: the binding signal is 0.0158 KA relative to UGCAUGU.

For B7, the binding signal was 0.00314 KA relative to UGCAUGU.

Regarding B8, the binding signal was 0.0118 KA relative to UGCAUGU.

As to B9, the binding signal is 0.00736 KA relative to UGCAUGU.

For the molecule B10, the binding signal was 0.012 KA relative to UGCAUGU.

On to B11, for which the binding signal is 0.0122 KA relative to UGCAUGU.

Regarding B12, the binding signal was 0.0034 KA relative to UGCAUGU.

B13: the binding signal was 0.023 KA relative to UGCAUGU.

Regarding B14, the binding signal is 0.00481 KA relative to UGCAUGU.

In the case of B15, the binding signal is 0.0144 KA relative to UGCAUGU.

Turning to B16, the binding signal is 0.018 KA relative to UGCAUGU.

Take B17: the binding signal was 0.0139 KA relative to UGCAUGU.

In the case of B18, the binding signal is 0.00325 KA relative to UGCAUGU.

Consider B19, for which the binding signal is 0.0126 KA relative to UGCAUGU.

As to B20, the binding signal is 0.0286 KA relative to UGCAUGU.

For B21, the binding signal was 0.00713 KA relative to UGCAUGU.

In the case of B22, the binding signal was 0.00589 KA relative to UGCAUGU.

As to B23, the binding signal is 0.0135 KA relative to UGCAUGU.

With B24, the binding signal was 0.000983 KA relative to UGCAUGU.

Take B25: the binding signal is 0.00258 KA relative to UGCAUGU.

Turning to B26, the binding signal was 0.0189 KA relative to UGCAUGU.

B27: the binding signal was 0.0119 KA relative to UGCAUGU.

For B28, the binding signal was 0.00814 KA relative to UGCAUGU.

B29: the binding signal is 0.0115 KA relative to UGCAUGU.

Turning to B30, the binding signal is 0.00901 KA relative to UGCAUGU.

On to B31, for which the binding signal was 0.0104 KA relative to UGCAUGU.
